Out of some 400,000 compounds screened, about 2,200 (0.55%) were called active. The inconclusive results got no clear call from the source; some entries with a clear call stand among them for comparison. The call rests on the fitted dose curve; in most records, active means well fitted inhibition curve with a large enough effect; inconclusive means small, poorly fitted or top-dose-only effect, or another doubt; inactive means no such curve, though single readings can be large or run the other way. A potency beside an inconclusive call is a rough fit, not a confirmed value. Where a structure was tested more than once in an assay, its records may differ in their call.
molecular target: DNA polymerase kappa (Homo sapiens) (UniProt Q9UBT6); test: qHTS for Inhibitors of Polymerase Kappa; conditions: purified Pol kappa, fluorescent DNA synthesis assay, 10 min; series mostly up to 107 µM; activity, negative = inhibition: at the top concentration
Method in brief: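 First, compounds were pin-transferred onto 10 nM Pol kappa. After 15 min at room temperature, substrate was added to 50 nM final. Fluorescence was then measured kinetically at 0 and 10 min.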
On the % scale 0 is the no-effect control and ±100 the full control effect; potency means the concentration at half of the fitted maximal effect; tags describe the fitted curve by direction and shape.

Sequence of UniProt Q9UBT6 (Q9UBT6 whole entry, looked up): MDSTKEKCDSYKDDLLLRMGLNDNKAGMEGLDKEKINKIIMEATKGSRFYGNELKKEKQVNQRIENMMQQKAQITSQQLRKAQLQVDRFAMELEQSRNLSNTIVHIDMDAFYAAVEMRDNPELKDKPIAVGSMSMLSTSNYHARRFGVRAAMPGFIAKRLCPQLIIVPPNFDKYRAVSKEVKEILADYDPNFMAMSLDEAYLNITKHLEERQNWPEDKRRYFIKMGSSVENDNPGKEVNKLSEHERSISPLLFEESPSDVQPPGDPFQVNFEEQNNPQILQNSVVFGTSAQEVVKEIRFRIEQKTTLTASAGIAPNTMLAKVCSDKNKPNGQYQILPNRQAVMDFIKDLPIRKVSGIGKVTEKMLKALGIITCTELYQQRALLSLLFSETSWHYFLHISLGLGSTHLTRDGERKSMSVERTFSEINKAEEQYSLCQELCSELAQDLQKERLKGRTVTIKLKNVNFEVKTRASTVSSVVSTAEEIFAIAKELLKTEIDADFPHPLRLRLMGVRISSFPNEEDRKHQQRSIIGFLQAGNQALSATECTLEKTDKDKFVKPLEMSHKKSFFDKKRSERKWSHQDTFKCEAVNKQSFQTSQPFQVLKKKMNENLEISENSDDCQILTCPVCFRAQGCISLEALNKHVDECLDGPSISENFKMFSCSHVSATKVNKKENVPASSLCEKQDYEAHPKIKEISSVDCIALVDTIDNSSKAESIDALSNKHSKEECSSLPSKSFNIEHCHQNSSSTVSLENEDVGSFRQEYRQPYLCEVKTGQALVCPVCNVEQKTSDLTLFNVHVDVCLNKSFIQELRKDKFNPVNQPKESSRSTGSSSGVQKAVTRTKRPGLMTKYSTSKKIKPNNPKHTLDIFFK

Compound | activity, negative = inhibition | Potency
CCCCOc1cccc(NC(=O)c2cccc(C(=O)Nc3cccc(OCCCC)c3)c2)c1 | inactive: -7.18% | –
CCOC(=O)c1nc(Nc2ccc(C(=O)OC)cc2)c2ccccc2n1 | – | inconclusive: 89.1 µM [inhibitor, single point]
COc1ccc(-c2nn(-c3ccccc3)cc2/C=N/NC(=O)c2ccc(Br)o2)cc1 | inactive: -18.1% | –
COc1cccc(-n2cc(C(=O)OCc3ccc(Cl)cc3)c3ccccc3c2=O)c1 | – | inconclusive: 7.08 µM [inhibitor, partial curve, poor fit]
O=C(NCc1ccccc1Cl)c1ccc(Cn2c(=O)c3cccn3c3cccnc32)cc1 | inactive: -18.1% | –
COC(=O)N1CCC2(CCCN(c3ncccn3)C2)CC1 | inactive: 4.48% [at 60.1 µM] | –
CCOc1cc(C=O)ccc1OS(=O)(=O)c1ccc(NC(C)=O)cc1 | – | inconclusive: 100 µM [inhibitor, partial curve, poor fit]
COc1ccc(OC)c(-c2csc(NC(=O)COC(=O)c3ccc(NC(=O)CC#N)cc3)n2)c1 | – | active: 50.1 µM
Cc1ccc(-n2nc3c(N4CCC(C(=O)NC(C)c5ccccc5)CC4)nnc(C)c3c2C)cc1 (stereo not given) | inactive: 4.63% | –
CCc1cccc(C)c1NC(=O)C1CCN(c2nn3c(=O)cc(C)nc3s2)CC1 | – | inconclusive: 89.1 µM [inhibitor, single point]
CN(C)c1ccc(-c2nc(NC3CCNCC3)c3ccccc3n2)cc1 | – | active: 31.6 µM
Cc1nnc(SCC(=O)NC2CCCCC2)s1 | – | inconclusive: 89.1 µM [inhibitor, partial curve, poor fit]
Cc1nc2sc(C(=O)N(C)c3ccccc3)c(NC(=O)c3ccccc3Cl)c2c(C)c1C | inactive: 3.77% | –
CC(C)Cc1nnc(NC(=O)c2cc([N+](=O)[O-])ccc2N2CCOCC2)s1 | – | inconclusive: 89.1 µM [inhibitor, single point]
O=C(CSc1nc2ccccc2o1)N1CCOCC1 | inactive: -6.81% | –
N#Cc1c(-c2ccc(F)cc2)cc(-c2ccccc2)nc1SCC(=O)NCC(=O)O | inactive: -12.3% | –
CCNc1nc(NCC)n2c(SCC(=O)Nc3ccc(F)cc3)nnc2n1 | – | inconclusive: 89.1 µM [inhibitor, single point]
CCn1cc(C(=O)NCc2ccco2)c(=O)c2cc(F)c(N3CCN(C(=O)c4ccco4)CC3)cc21 | – | inconclusive: 89.1 µM [inhibitor, single point]
O=C(CCc1ccc(O)c(O)c1)N/N=C/c1cc2c(cc1[N+](=O)[O-])OCO2 | – | active: 25.1 µM
Nc1nonc1-n1nnc(C(=O)N/N=C/c2ccc(F)cc2)c1-c1cccs1 | – | inconclusive: 89.1 µM [inhibitor, partial curve, poor fit]
COc1ccc(N(C)C(=O)c2cc(S(=O)(=O)N3CCc4ccccc43)cn2C)c(OC)c1 | – | inconclusive: 89.1 µM [inhibitor, single point]
CCCCC(CC)CN=C(N)NC(N)=NCCCCCCN=C(N)NC(N)=NCC(CC)CCCC (stereo not given) | – | inconclusive: 28.2 µM [inhibitor, partial curve]
Cc1[nH][nH]c(=O)c1C(c1ccc(-c2ccc(Cl)c(C(=O)O)c2)o1)c1c(C)[nH][nH]c1=O | – | active: 50.1 µM
CC(C(=O)N(C)C1CCS(=O)(=O)C1)N1C(=O)/C(=C/c2ccco2)SC1=S (stereo not given) | – | inconclusive: 79.4 µM [inhibitor, single point]

Compound | activity, negative = inhibition | Potency
Cc1ccccc1N=C1NC(=O)/C(=C/c2cccn2-c2cccc(C(=O)O)c2)S1 | – | active: 79.4 µM
c1cncc(CNc2cc(-c3ccoc3)ncn2)c1 | – | inconclusive: 22.4 µM [inhibitor, single point]
Nc1c(C=C2C=CC(=O)C=C2)c(=O)nc2sc(CC(=O)N3CCCC3)nn12 | – | inconclusive: 89.1 µM [inhibitor, single point]
O=c1oc2ccccc2cc1-c1cn2cc(Cc3ccccc3F)sc2n1 | inactive: 1.39% | –
O=C1CC(N(CCc2ccccc2)C(=S)Nc2cc(Cl)ccc2Cl)C(=O)N1c1c(Cl)cccc1Cl (stereo not given) | inactive: -8.26% | –
Cc1ccc(CNC(=O)C2CCN(S(=O)(=O)c3ccc4c(c3)CC(C)N4C(=O)C3CCC3)CC2)o1 (stereo not given) | – | inconclusive: 89.1 µM [inhibitor, single point]
Cc1cc(C)n(Cc2ccc(C(=O)N/N=C/c3ccc(-c4ccc([N+](=O)[O-])cc4)o3)o2)n1 | – | active: 25.1 µM
COc1ccc(OC)c(NC(=O)C2CC(=O)N(CCc3ccc(F)cc3)C2)c1 (stereo not given) | – | inconclusive: 79.4 µM [inhibitor, single point]
NC(=S)N=Nc1ccc(NN=C(N)N)cc1 | – | inconclusive: 15.8 µM [inhibitor, single point]
CC(C)C(C(=O)O)N1C(=O)/C(=C/C=C/c2ccco2)SC1=S (stereo not given) | – | active: 3.16 µM
CCOc1ccc(S(=O)(=O)NCCc2sc3nc(-c4ccc(C)cc4)nn3c2C)cc1 | inactive: -16.2% [at 60.1 µM] | –
CSCCOC(=O)COc1ccc(/C=N/NC(=O)c2c(Cl)cnn2C)cc1 | inactive: -8.68% | –
Cc1ccsc1CNC12CC3CC(CC(C3)C1)C2 | – | inconclusive: 79.4 µM [inhibitor, partial curve]
COc1cc(SC)ccc1C(=O)N1CCC(Cc2ccccc2)CC1 | – | inactive
Cc1ccc(C(=O)OCC(=O)NCc2cc(C)c(O)c(C)c2)cc1S(=O)(=O)N1CCCCC1 | – | inconclusive: 89.1 µM [inhibitor, single point]
O=C(/C=C/c1ccco1)N1CCN(S(=O)(=O)c2ccccc2)CC1 | – | inconclusive: 89.1 µM [inhibitor, single point]
O=C(CNC(=O)c1ccc(F)cc1)N/N=C/c1ccc(O)c([N+](=O)[O-])c1 | inactive: -9.69% | –
CCC(C)Sc1nnc(NC(=O)c2ccco2)s1 (stereo not given) | – | inconclusive: 25.1 µM [inhibitor, single point]
C=CCN1C(=O)/C(=C2/Sc3ccccc3N2CCCS(=O)(=O)O)SC1=S | – | inconclusive: 39.8 µM [inhibitor, full curve]
O=C(CSc1nccn1Cc1ccc(Cl)cc1)Nc1ccc2c(c1)OCO2 | inactive: -2.45% [at 60.1 µM] | –
Cc1ccc(C(=O)Nc2ccc(S(=O)(=O)NCc3ccco3)cc2)cc1 | – | inconclusive: 89.1 µM [inhibitor, single point]
Oc1cc2cc(-c3csc(-c4ccc(F)cc4)n3)ccc2[nH]1 | inactive: -24.8% | –
CCC(Sc1nc2ncccc2o1)C(=O)Nc1cccc(C)c1 (stereo not given) | inactive: -9.26% | –
O=C(NCc1ccco1)c1cccc(NC(=O)c2ccco2)c1 | – | inconclusive: 89.1 µM [inhibitor, single point]

Compound | activity, negative = inhibition | Potency
CCc1nnc(NC(=O)c2ccccc2NC(=O)C2CCN(C(=O)c3ccco3)CC2)s1 | – | inconclusive: 89.1 µM [inhibitor, partial curve, poor fit]
O=C1CCCc2[nH]c(=O)c(-c3nc(-c4cccc([N+](=O)[O-])c4)cs3)cc21 | inactive: 9.54% | –
Cn1c(Cn2c(=O)sc3ccccc32)nnc1SCC(=O)NCc1ccccc1 | – | inconclusive: 39.8 µM [inhibitor, single point]
O=C1C=C(NCCc2cc(Br)c(O)c(Br)c2)C(=O)c2ncccc21 | – | active: 28.2 µM
CCN(CC(=O)NC(=O)NCc1ccco1)Cc1nc2ccccc2c(=O)[nH]1 | – | inconclusive: 100 µM [inhibitor, single point]
COC(=O)C1=C(C)N(CCCC(=O)O)C(=O)NC1c1ccc(OC)cc1 (stereo not given) | inactive: 7.86% | –
CCOC(=O)C1=C(c2ccccc2)c2cc(OC)ccc2OC1C(=O)OCC (stereo not given) | – | inconclusive: 31.6 µM [inhibitor, partial curve, poor fit]
O=C(Nc1nnc(-c2ccccc2F)s1)C1CCCO1 (stereo not given) | – | inconclusive: 79.4 µM [inhibitor, partial curve, poor fit]
CCc1nnc(NC(=O)Cc2cccs2)s1 | – | inconclusive: 89.1 µM [inhibitor, single point]
Cc1ccccc1NC(=O)CSc1nc2ccccc2c2nc(CCn3c(C)nc4ccccc43)nn12 | inactive: -1.13% [at 60.1 µM] | –
CC(/C=N/NC(=O)CN1CCN(Cc2ccc(Cl)cc2)CC1)=C\c1ccco1 | – | inconclusive: 89.1 µM [inhibitor, partial curve, poor fit]
COc1ccc(-c2nnc(Nc3nc4c(OC)cccc4s3)o2)cc1 | – | active: 35.5 µM
Cc1ccc(NC(=O)NNC(=O)c2cc3ccccc3cc2O)c(C)c1 | – | inconclusive: 89.1 µM [inhibitor, partial curve, poor fit]
COc1ccc(NC(=O)CSc2nc3c(c(=O)[nH]2)CCC3)cc1 | – | inconclusive: 89.1 µM [inhibitor, single point]
CN(C)CCCn1c(N)c(C#N)c2nc3ccccc3nc21 | – | inconclusive: 100 µM [inhibitor, partial curve, poor fit]
CCn1c2ccccc2c2cc(/C=N/NC(=O)c3ccc(O)cc3)ccc21 | – | inconclusive: 70.8 µM [inhibitor, partial curve, poor fit]
O=C1NN(c2cccc(Br)c2)C(=O)/C1=C\c1ccccc1 | – | inconclusive: 89.1 µM [inhibitor, single point]
CCCCCCCCCCCCCCCC(=O)N[C@@H](COP(=O)(O)O)C(=O)O | – | active: 26.7 µM
CN1CCN(c2ncc3nc(-c4ccccc4)c(=O)n(CCC#N)c3n2)CC1 | inactive: 5.34% [at 60.1 µM] | –
Cc1ccc(-c2nc3ncccc3o2)cc1NC(=O)c1ccccc1Br | inactive: -5.23% | –
CN(CC(=O)Nc1c(Cl)cccc1Cl)C(=O)c1cccc(-n2cccc2)c1 | – | active: 79.4 µM
Cc1ccc(CNC(=O)c2sc3nc(-c4ccc(F)cc4)ccc3c2N)cc1 | – | inconclusive: 89.1 µM [inhibitor, partial curve, poor fit]

— PubChem BioAssay AID588579 (National Center for Advancing Translational Sciences (NCATS), 2011)
